In PMC12136788:
The other results are listed elsewhere or left out.

B1: chr2:61188134:61188237:-|CDS|ENSG00000115464|unk|FALSE|unique (ssRNA)
RNA: GGGAGUUCUACAGUCCGACGAUCAUCUCUCAGUUGUGGCCAUUCCAGAGGACUCUUUAGUCAUAUGCAGCAACAUGACAUUUUAGAUACCCUGUGUAGGACCAUUGAAUCUACAAUCCAUGUCGUCACAAGGAUAUCUGGCAACAACAGAGGAUUGAGCAUCA
B2: ENSG00000070961:be:win_1401|CDS|ENSG00000070961|bound_else_gene|NA|bound_elsewhere_windowed (ssRNA)
RNA: GGGAGUUCUACAGUCCGACGAUCAAAUGCUACAGCUAUUUGUUCAGAUAAAACAGGAACUUUGACAAUGAACAGAAUGACAGUCGUUCAAGCUUACAUAAAUGAAAAACAUUAUAAAAAGGUUCCUGAACCAGAAGCUAUUCCCAACAGAGGAUUGAGCAUCA
B3: chr1:183143318:183143419:+|3pUTR|ENSG00000135862|msi1|total|mutant (ssRNA)
RNA: GGGAGUUCUACAGUCCGACGAUCACAUCCUGUGCCAAAGGUAUUGGUCAUUCCGAAUGUCGGCCGCCAUCCAUCAGUGCUUUCCGUUAUUAUGAGUGCCGGACACUGAGCCAUCCGUGGGUCAGGAUGCAAUUAUUUAUAAAACAACAGAGGAUUGAGCAUCA
B4: chr2:169206329:169207250:-|CDS|ENSG00000081479|control|control|control (ssRNA)
RNA: GGGAGUUCUACAGUCCGACGAUCAACUGUCAUGUCUCUAGACUAUGACAGUGUAAGUGAUAGAAUCUACUUCACACAAAAUUUAGCCUCUGGAGUUGGACAGAUUUCCUAUGCCACCCUGUCUUCAGGGAUCCAUACUCCAACCAACAGAGGAUUGAGCAUCA
B5: chr7:6409910:6410025:-|CDS|ENSG00000164535|unk|total|mutant (ssRNA)
RNA: GGGAGUUCUACAGUCCGACGAUCCUCUGCUGCUCACUACCGCGCCAAGUGGUCACACGAAGCGGAAUUCAGCAAAAUACUCACCGGUCCGAAGAUGCUCACCGACCACAUGCCAGACAUCCUGAUGCGGGCCUUGGACAGCGUCAACAGAGGAUUGAGCAUCA
B6: ENSG00000141012:stop:overlap|stop_codon|ENSG00000141012|stop_codon|NA|stop_codon (ssRNA)
RNA: GGGAGUUCUACAGUCCGACGAUCAGUUAGGGAAGUGUCUGACACCUCCAGAAUCCAUUCCCAAGAAGUGCCUCUGGUCCCACUAGCACCUGCGCAGACUCAGGCCAGGCCUAGAAUCUCCGGUUGGCCCUGCAAGUGCCUGGACAACAGAGGAUUGAGCAUCA

biological target: MSI1 full-length (mouse, UniProt Q61474 1-362); assay: nsRBNS (natural sequence RNA bind-n-seq); RBNS binding buffer (assumed for nsRBNS): 25 mM Tris pH 7.5, 150 mM KCl, 3 mM MgCl2, 0.01% Triton X-100, 500 ug/ml BSA, 20 U/ml SUPERase-In, 4 C; UNK is unkempt and MSI1 is Musashi-1; names of the RNAs are library labels; protein concentration not given here; high values mean tight binding
Chain of UniProt Q61474 (Q61474 whole entry): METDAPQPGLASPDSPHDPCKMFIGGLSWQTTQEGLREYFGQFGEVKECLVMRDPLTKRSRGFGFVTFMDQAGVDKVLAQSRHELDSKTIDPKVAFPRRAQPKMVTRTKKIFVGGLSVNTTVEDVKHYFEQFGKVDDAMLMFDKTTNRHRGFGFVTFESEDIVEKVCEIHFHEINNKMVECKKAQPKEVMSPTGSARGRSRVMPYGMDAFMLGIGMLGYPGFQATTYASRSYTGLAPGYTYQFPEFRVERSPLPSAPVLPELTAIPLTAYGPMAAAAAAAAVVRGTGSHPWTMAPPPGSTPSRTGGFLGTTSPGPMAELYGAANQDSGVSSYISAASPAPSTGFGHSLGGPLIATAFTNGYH

| Binder | binding signal [enrichment R] |
| --- | --- |
| B1 | 0.347 |
| B2 | 0.413 |
| B3 | 0.319 |
| B4 | 0.679 |
| B5 | 0.446 |
| B6 | 0.527 |
